Drawing on article PMC11674122, this text covers binding for 13 molecules.

For experiment [1], the target named is T1, HA-tagged NEK2 (Never In Mitosis A (NIMA)-related serine/threonine protein kinase 2) (human) (UniProt P51955).
T1 sequence: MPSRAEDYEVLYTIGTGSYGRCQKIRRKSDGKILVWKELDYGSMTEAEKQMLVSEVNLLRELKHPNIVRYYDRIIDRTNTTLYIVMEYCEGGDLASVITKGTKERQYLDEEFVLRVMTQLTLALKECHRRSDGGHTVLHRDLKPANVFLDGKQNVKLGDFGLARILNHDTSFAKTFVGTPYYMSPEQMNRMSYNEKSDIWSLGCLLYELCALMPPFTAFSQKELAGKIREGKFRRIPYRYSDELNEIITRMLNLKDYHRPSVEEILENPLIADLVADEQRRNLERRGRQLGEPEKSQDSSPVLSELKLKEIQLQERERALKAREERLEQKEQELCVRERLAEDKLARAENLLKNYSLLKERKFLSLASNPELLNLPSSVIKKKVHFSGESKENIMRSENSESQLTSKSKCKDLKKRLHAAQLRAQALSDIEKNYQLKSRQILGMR
The experiment in a line: co-IP; HeLa cells co-transfected with HA-NEK2 and Flag-RhoGDI1 or Flag-RhoGDI2; lysates immunoprecipitated with HA antibody, Western blot with HA and Flag antibodies.

In experiment [2] the target is T2, active His-NEK2 (recombinant His-tagged NEK2) (UniProt P51955).
T2 sequence: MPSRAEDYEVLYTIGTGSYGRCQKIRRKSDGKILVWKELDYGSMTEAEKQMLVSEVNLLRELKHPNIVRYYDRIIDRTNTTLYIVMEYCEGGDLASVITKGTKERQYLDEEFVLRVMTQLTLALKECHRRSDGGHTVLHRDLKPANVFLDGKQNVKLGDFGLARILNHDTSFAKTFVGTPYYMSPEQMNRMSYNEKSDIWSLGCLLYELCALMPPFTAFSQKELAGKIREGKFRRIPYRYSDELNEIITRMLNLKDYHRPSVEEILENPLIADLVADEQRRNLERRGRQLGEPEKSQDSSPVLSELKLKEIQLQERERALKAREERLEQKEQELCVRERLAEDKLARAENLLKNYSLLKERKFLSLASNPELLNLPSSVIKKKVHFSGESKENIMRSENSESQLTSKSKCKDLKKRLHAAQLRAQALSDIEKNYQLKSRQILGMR
The experiment in a line: pull-down; His pull-down: Ni-NTA agarose beads reacted with His-NEK2 overnight at 4 °C, then mixed with GST-tagged wt or truncated fragments of RhoGDI1 purified from E. coli overnight at 4 °C; three washes; WB with NEK2 and GST antibodies; both purified.

For experiment [3], the target named is T3, endogenous NEK2 (human (endogenous in HT-29 and HCT116)) (UniProt P51955).
T3 sequence: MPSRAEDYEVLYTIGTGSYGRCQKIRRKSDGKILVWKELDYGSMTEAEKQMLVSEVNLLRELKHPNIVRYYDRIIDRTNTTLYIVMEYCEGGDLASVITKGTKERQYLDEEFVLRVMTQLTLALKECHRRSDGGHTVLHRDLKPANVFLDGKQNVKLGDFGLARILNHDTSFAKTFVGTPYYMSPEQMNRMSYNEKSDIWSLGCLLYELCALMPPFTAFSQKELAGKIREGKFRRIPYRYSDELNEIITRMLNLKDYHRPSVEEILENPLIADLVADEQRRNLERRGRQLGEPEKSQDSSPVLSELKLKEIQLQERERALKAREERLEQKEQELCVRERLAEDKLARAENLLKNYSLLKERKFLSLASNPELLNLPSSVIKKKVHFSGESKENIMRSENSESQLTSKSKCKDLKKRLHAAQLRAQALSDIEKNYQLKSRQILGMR
The experiment in a line: co-IP; HCT116 cells transfected with mock vector or GFP-tagged RhoGDI1 aa 112–134; lysates immunoprecipitated with IgG or RhoGDI1 antibody; WB, band intensities NEK2/RhoGDI1.

In experiment [4] the target is T4, endogenous RhoGDI1 (human (endogenous in HT-29, HCT116 and DLD-1)) (UniProt P52565).
T4 sequence: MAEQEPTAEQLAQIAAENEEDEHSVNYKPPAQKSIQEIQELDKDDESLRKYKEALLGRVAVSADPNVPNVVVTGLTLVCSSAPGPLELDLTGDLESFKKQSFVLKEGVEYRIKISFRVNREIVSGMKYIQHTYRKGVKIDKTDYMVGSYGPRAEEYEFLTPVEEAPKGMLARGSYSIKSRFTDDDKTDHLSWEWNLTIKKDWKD
The experiment in a line: co-IP; DLD-1 cells stably expressing mock or HA-NEK2, serum-free media 24 h; lysates immunoprecipitated with RhoGDI1 antibody; WB, band intensities 14-3-3 tau/RhoGDI1.

In experiment [5] the target is T5, recombinant GST-tagged RhoGDI1 (Cytoskeleton) (UniProt P52565).
T5 sequence: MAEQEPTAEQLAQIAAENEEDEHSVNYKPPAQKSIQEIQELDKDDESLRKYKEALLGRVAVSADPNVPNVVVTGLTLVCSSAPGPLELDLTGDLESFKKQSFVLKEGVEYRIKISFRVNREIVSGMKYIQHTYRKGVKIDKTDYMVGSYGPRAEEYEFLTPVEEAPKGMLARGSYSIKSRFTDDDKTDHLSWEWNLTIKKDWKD
As to the kind of experiment: pull-down; GST pull-down: GSH beads reacted with recombinant RhoGDI1 or RhoGDI2 overnight at 4 °C, then mixed with active His-NEK2 overnight at 4 °C; three washes; WB; both purified.

For experiment [6], the target named is T6, recombinant GST-tagged RhoGDI2 (Novusbio) (UniProt P52566).
T6 sequence: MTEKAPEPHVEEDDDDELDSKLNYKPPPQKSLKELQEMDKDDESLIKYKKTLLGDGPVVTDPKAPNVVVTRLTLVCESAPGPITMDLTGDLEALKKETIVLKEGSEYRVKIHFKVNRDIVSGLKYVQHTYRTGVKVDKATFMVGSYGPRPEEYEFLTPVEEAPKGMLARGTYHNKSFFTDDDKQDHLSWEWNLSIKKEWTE
Described as above.

For experiment [7], the target named is T4, endogenous RhoGDI1 (human (endogenous in HT-29, HCT116 and DLD-1)). As to the kind of experiment: co-IP; endogenous proteins; HT-29 and HCT116 lysates (RIPA buffer) immunoprecipitated with IgG or RhoGDI1 antibody at 4 °C for 24 h, agarose beads 2 h; WB.
The target is the same in experiment [8]. As to the kind of experiment: co-IP; HCT116 cells transfected with mock vector or GFP-tagged RhoGDI1 aa 112–134; lysates immunoprecipitated with IgG or RhoGDI1 antibody; WB, band intensities NEK2/RhoGDI1.

Results are given in words; binding and its absence hold for the method and conditions named. For part of these data: In cells and extracts the contact can be indirect. Some results given as binding are weak or reduced against the parent protein; the word gives no strength. For part of these data: Where a sequence is shown, tags or fusion partners need not be part of it.

B1: Flag-tagged RhoGDI2 (protein, UniProt P52566 1-201)
chain: MTEKAPEPHVEEDDDDELDSKLNYKPPPQKSLKELQEMDKDDESLIKYKKTLLGDGPVVTDPKAPNVVVTRLTLVCESAPGPITMDLTGDLEALKKETIVLKEGSEYRVKIHFKVNRDIVSGLKYVQHTYRTGVKVDKATFMVGSYGPRPEEYEFLTPVEEAPKGMLARGTYHNKSFFTDDDKQDHLSWEWNLSIKKEWTE
With B1, in experiment [1], the binding result was “no binding”.

B2: Flag-tagged RhoGDI1 (Rho guanine nucleotide dissociation inhibitor 1) (protein, UniProt P52565 1-204)
chain: MAEQEPTAEQLAQIAAENEEDEHSVNYKPPAQKSIQEIQELDKDDESLRKYKEALLGRVAVSADPNVPNVVVTGLTLVCSSAPGPLELDLTGDLESFKKQSFVLKEGVEYRIKISFRVNREIVSGMKYIQHTYRKGVKIDKTDYMVGSYGPRAEEYEFLTPVEEAPKGMLARGSYSIKSRFTDDDKTDHLSWEWNLTIKKDWKD
With B2, the binding result in experiment [1] was “binds”.

B3: GST-tagged RhoGDI1 wild type (WT) (protein, UniProt P52565 1-204)
chain: MAEQEPTAEQLAQIAAENEEDEHSVNYKPPAQKSIQEIQELDKDDESLRKYKEALLGRVAVSADPNVPNVVVTGLTLVCSSAPGPLELDLTGDLESFKKQSFVLKEGVEYRIKISFRVNREIVSGMKYIQHTYRKGVKIDKTDYMVGSYGPRAEEYEFLTPVEEAPKGMLARGSYSIKSRFTDDDKTDHLSWEWNLTIKKDWKD
B3: the binding result in experiment [2] is “binds”.

B4: GST-tagged RhoGDI1 aa 1–67 (domain or fragment, UniProt P52565 1-67)
chain: MAEQEPTAEQLAQIAAENEEDEHSVNYKPPAQKSIQEIQELDKDDESLRKYKEALLGRVAVSADPNV
Take B4: the binding entry in experiment [2] is reported as “no binding”.
IKISFRVNREIVSGMKYIQHTYR (domain or fragment, UniProt P52565 112-134) [GFP-tagged RhoGDI1 aa 112–134]: in experiment [3], the binding entry is recorded as “binds”.
Regarding LTGDLESFKKQSFVLKEGVEYR (domain or fragment, UniProt P52565 90-111) [GST-tagged RhoGDI1 aa 90–111], in experiment [2], the binding entry was “no binding”.

B5: 14-3-3 tau (endogenous) (protein, UniProt P27348 1-245)
chain: MEKTELIQKAKLAEQAERYDDMATCMKAVTEQGAELSNEERNLLSVAYKNVVGGRRSAWRVISSIEQKTDTSDKKLQLIKDYREKVESELRSICTTVLELLDKYLIANATNPESKVFYLKMKGDYFRYLAEVACGDDRKQTIDNSQGAYQEAFDISKKEMQPTHPIRLGLALNFSVFYYEILNNPELACTLAKTAFDEAIAELDTLNEDSYKDSTLIMQLLRDNLTLWTSDSAGEECDAAEGAEN
Turning to B5, the binding result in experiment [4] is reported as “binds”.

B6: active His-NEK2 (recombinant His-tagged NEK2) (enzyme, UniProt P51955 1-445)
chain: MPSRAEDYEVLYTIGTGSYGRCQKIRRKSDGKILVWKELDYGSMTEAEKQMLVSEVNLLRELKHPNIVRYYDRIIDRTNTTLYIVMEYCEGGDLASVITKGTKERQYLDEEFVLRVMTQLTLALKECHRRSDGGHTVLHRDLKPANVFLDGKQNVKLGDFGLARILNHDTSFAKTFVGTPYYMSPEQMNRMSYNEKSDIWSLGCLLYELCALMPPFTAFSQKELAGKIREGKFRRIPYRYSDELNEIITRMLNLKDYHRPSVEEILENPLIADLVADEQRRNLERRGRQLGEPEKSQDSSPVLSELKLKEIQLQERERALKAREERLEQKEQELCVRERLAEDKLARAENLLKNYSLLKERKFLSLASNPELLNLPSSVIKKKVHFSGESKENIMRSENSESQLTSKSKCKDLKKRLHAAQLRAQALSDIEKNYQLKSRQILGMR
With B6, the binding entry in experiment [5] is on record as “binds”; in experiment [6], “no binding”.

B7: endogenous NEK2 (enzyme, UniProt P51955 1-445)
chain: MPSRAEDYEVLYTIGTGSYGRCQKIRRKSDGKILVWKELDYGSMTEAEKQMLVSEVNLLRELKHPNIVRYYDRIIDRTNTTLYIVMEYCEGGDLASVITKGTKERQYLDEEFVLRVMTQLTLALKECHRRSDGGHTVLHRDLKPANVFLDGKQNVKLGDFGLARILNHDTSFAKTFVGTPYYMSPEQMNRMSYNEKSDIWSLGCLLYELCALMPPFTAFSQKELAGKIREGKFRRIPYRYSDELNEIITRMLNLKDYHRPSVEEILENPLIADLVADEQRRNLERRGRQLGEPEKSQDSSPVLSELKLKEIQLQERERALKAREERLEQKEQELCVRERLAEDKLARAENLLKNYSLLKERKFLSLASNPELLNLPSSVIKKKVHFSGESKENIMRSENSESQLTSKSKCKDLKKRLHAAQLRAQALSDIEKNYQLKSRQILGMR
As for B7, the binding entry in experiment [7] and in experiment [8] was “binds” in each case.

B8: GST-tagged RhoGDI1 aa 1–134 (domain or fragment, UniProt P52565 1-134)
chain: MAEQEPTAEQLAQIAAENEEDEHSVNYKPPAQKSIQEIQELDKDDESLRKYKEALLGRVAVSADPNVPNVVVTGLTLVCSSAPGPLELDLTGDLESFKKQSFVLKEGVEYRIKISFRVNREIVSGMKYIQHTYR
Consider B8, for which, in experiment [2], the binding entry is “binds”.
In the case of PNVVVTGLTLVCSSAPGPLELD (domain or fragment, UniProt P52565 68-89) [GST-tagged RhoGDI1 aa 68–89], the binding result in experiment [2] is listed as “binds weakly”.
IKISFRVNREIVSGMKYIQHTYR (domain or fragment, UniProt P52565 112-134) [GST-tagged RhoGDI1 aa 112–134]: the binding entry in experiment [2] is given as “binds”.

B9: GST-tagged RhoGDI1 aa 68–201 (domain or fragment, UniProt P52565 68-201)
chain: PNVVVTGLTLVCSSAPGPLELDLTGDLESFKKQSFVLKEGVEYRIKISFRVNREIVSGMKYIQHTYRKGVKIDKTDYMVGSYGPRAEEYEFLTPVEEAPKGMLARGSYSIKSRFTDDDKTDHLSWEWNLTIKKD
For the molecule B9, in experiment [2], the binding entry was “binds”.
